Experimental data taken from PubChem BioAssay AID485294 (National Center for Advancing Translational Sciences (NCATS), 2010).
The campaign covered roughly 370,000 compounds. About 150 (0.041%) were called active. This list was built around the results that the source calls inconclusive (neither active nor inactive); the mix of calls is not that of the screen. Calls come from the whole dose curve; as a rule, active = well fitted inhibition curve with a large enough effect; inconclusive = small, poorly fitted or top-dose-only effect; inactive = flat fitted curve, though single readings scatter. Potencies of inconclusive entries are left out as doubtful fits.
Note: nearly all actives have a fitted effect of over 25% in size.
Potency is the fitted concentration of half-maximal effect; tags give direction and shape of the fitted curve.

Each compound was assayed against Beta-lactamase (Escherichia coli (strain K12)) (UniProt P00811) (assay: qHTS Inhibitors of AmpC Beta-Lactamase (assay with detergent)). Conditions: AmpC hydrolysis of nitrocefin, absorbance 480 nm, 0.01% Triton; series mostly up to 114 µM.
Chain of UniProt P00811 (P00811 whole entry, looked up): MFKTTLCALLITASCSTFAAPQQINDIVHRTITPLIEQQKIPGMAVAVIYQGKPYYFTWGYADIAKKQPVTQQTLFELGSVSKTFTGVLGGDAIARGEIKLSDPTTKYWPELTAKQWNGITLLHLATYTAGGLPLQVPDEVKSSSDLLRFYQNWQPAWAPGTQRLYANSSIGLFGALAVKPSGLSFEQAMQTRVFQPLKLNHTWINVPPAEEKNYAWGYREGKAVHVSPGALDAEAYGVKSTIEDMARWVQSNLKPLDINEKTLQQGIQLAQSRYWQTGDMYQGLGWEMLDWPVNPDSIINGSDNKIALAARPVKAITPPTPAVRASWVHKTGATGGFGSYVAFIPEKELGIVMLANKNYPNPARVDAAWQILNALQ
Outline: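 AmpC (5.3 nM in the dispensed reagent) in 20 mM phosphate pH 7.0 with 0.01% (detergent screen) or 0.0001% Triton X-100 was preincubated with compounds for 15 min at room temperature. Nitrocefin was then added from an 800 uM solution, and hydrolysis was followed at 480 nm.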
For `CCOc1nc(-c2ccc(Cl)cc2)nc2ccccc12`, the Potency was inconclusive [inhibitor, single point].
`O=c1[nH]c(Nc2ccc3c(c2)OCCO3)nnc1Cc1ccccc1` was tested, and the Potency was inconclusive [inhibitor, partial curve, poor fit].
In the case of `CCCCCCC1C(C#N)=C(N)OC2=C1C(=O)CC(C)(C)C2` (stereo unspecified), the Potency is reported as inconclusive [inhibitor, full curve, poor fit].
`O=C(N/N=C/c1ccccc1)c1sccc1OCc1ccc(F)cc1` was tested, and the Potency was inconclusive [inhibitor, single point].
For `CN(C)S(=O)(=O)Oc1ccc(C(=O)Nc2cccc(C(F)(F)F)c2)cc1`, the Potency was inconclusive [inhibitor, full curve].
`COc1ccc(CN(C(=O)c2ccco2)c2ccc(C)cc2)cc1OC` was tested, and the Potency was inconclusive [inhibitor, partial curve, poor fit].
In the case of `O=C(OCN1C(=O)c2ccccc2C1=O)C1CCCCC1`, the Potency is reported as “inactive”.
`CCOC(=O)Cc1[nH]nc2c1C(c1cccc(OC)c1OC)C(C#N)=C(N)O2` (stereo unspecified) was tested, and the Potency was inconclusive [inhibitor, partial curve, poor fit].
`Cn1cc(C2CC(c3ccccc3)=NN2C(=O)c2ccccc2)c2ccccc21` (stereo unspecified) was tested, and the Potency was “inactive”.
For `CCOc1ccccc1OCCCC(=O)N(CC)CC(=O)Nc1c(F)cccc1F`, the Potency was inconclusive [inhibitor, full curve, poor fit].
With `NS(=O)(=O)c1ccc(NC(=O)CCn2c(=O)oc3ccccc32)cc1` the Potency was “inactive”.
In the case of `COC(=O)C/C=C/[C@@H](C)[C@@H](/C=N/OCC[C@@H]1C=C[C@H](OC(C)=O)[C@@H](COC(C)=O)O1)NS(=O)(=O)c1ccc(C)cc1`, the Potency is reported as inconclusive [inhibitor, full curve, poor fit].
`Cc1ccccc1Cn1c(O)c(N=NC(=S)Nc2ccccc2F)c2ccccc21` was tested, and the Potency was “inactive”.
`O=c1c2ccccc2nc(SCc2cc(F)cc3c2OCOC3)n1Cc1ccco1` was tested, and the Potency was inconclusive [inhibitor, single point].
`Cc1cc(NS(=O)(=O)c2ccc(NC(=O)Cc3cccs3)cc2)no1` was tested, and the Potency was inconclusive [inhibitor, full curve, poor fit].
In the case of `Cc1ccc(C)c(N2CC(=O)N(c3cc(C)ccc3C)CC2=O)c1`, the Potency is reported as inconclusive [inhibitor, full curve, poor fit].
For `Cc1ccc(SCc2cn3c(C)csc3n2)cc1`, the Potency was inconclusive [inhibitor, full curve, poor fit].
With `Cc1ccccc1-n1nc(C(=O)O)cc1-c1ccccc1` the Potency was inconclusive [inhibitor, full curve, poor fit].
For `CCOc1ccccc1-c1nc(C(N)=O)c2[nH]c(=O)n(-c3ccc(F)cc3)c2n1`, the Potency was inconclusive [inhibitor, full curve, poor fit].
`Cc1ccc(N(C)S(=O)(=O)c2ccc3[nH]cc(C(=O)NCCCN4CCOCC4)c(=O)c3c2)cc1C` was tested, and the Potency was “inactive”.
`Cc1ccc(CNC(=O)CN(C(=O)C2(C)CC(=O)N=C3C=CC=CN32)c2ccccc2F)cc1` (stereo unspecified) was tested, and the Potency was “inactive”.
In the case of `Clc1ccc2nc(-c3ccc(Br)s3)cn2c1`, the Potency is reported as inconclusive [inhibitor, full curve, poor fit].
For `CCCOC(=O)c1ccc(NC(=O)c2cc(OC)c(OC)c(OC)c2Br)cc1`, the Potency was inconclusive [inhibitor, full curve, poor fit].
With `C=CCn1c(O)c(C(CC)=Nc2ccccc2NC(=O)CC)c(=O)[nH]c1=O` the Potency was inconclusive [inhibitor, full curve].
`Cc1ccc(C)c(OCc2cc(C(=O)N3CCN(c4ccccc4C)CC3C)no2)c1` (stereo unspecified) was tested, and the Potency was “inactive”.
In the case of `O=C1C(=O)c2ccccc2C(O)=C1C1CCC(c2ccc(Cl)cc2)CC1` (stereo unspecified), the Potency is reported as “inactive”.
In the case of `CC(NC(=O)c1ccc(OC2CCN(S(=O)(=O)N(C)C)CC2)cc1)C1CC1` (stereo unspecified), the Potency is reported as “inactive”.
`CCN(CC)S(=O)(=O)N1CCC(C(=O)NCc2ccc3c(c2)OCO3)CC1` was tested, and the Potency was inconclusive [inhibitor, full curve, poor fit].
In the case of `Cc1ccc(NC(=O)c2ccc3nc[nH]c3c2)c(O)c1`, the Potency is reported as “inactive”.
In the case of `COc1ccc(C(=O)N2CCCC(c3nc(-c4cc(OC)c(OC)c(OC)c4)no3)C2)cc1` (stereo unspecified), the Potency is reported as “inactive”.
In the case of `O=C(NCc1cccs1)C1CCN(S(=O)(=O)c2ccc(Br)s2)CC1`, the Potency is reported as inconclusive [inhibitor, full curve, poor fit].
For `CC(=O)N[C@H]1C(O)O[C@H](CO)[C@@H](O)[C@@H]1O` (stereo partly specified), the Potency was inconclusive [inhibitor, partial curve, poor fit].
`CC1(C)CC(=O)C2=C(C1)N(c1cccnc1)C(N)=C(C#N)C2c1cccs1` (stereo unspecified) was tested, and the Potency was “inactive”.
In the case of `CN(c1ccc(OCC(=O)Nc2ccc3[nH]c(=O)[nH]c3c2)cc1)S(=O)(=O)c1ccc(Cl)cc1`, the Potency is reported as inconclusive [inhibitor, single point].
`Cc1nnc(SCc2cc(=O)n3c(C)cccc3n2)s1` was tested, and the Potency was “inactive”.
`Cc1ccc(S(=O)(=O)N(C)c2ccccc2C(=O)N2CCOCC2)cc1` was tested, and the Potency was inconclusive [inhibitor, full curve, poor fit].
For `COCCCNCC(=O)Nc1sc(C)c(C)c1C(=O)OC`, the Potency was inconclusive [inhibitor, single point].
`CN(C)C(=O)CSc1nnc(Cc2ccccc2)n1Cc1ccco1` was tested, and the Potency was inconclusive [inhibitor, partial curve, poor fit].
For `CCC(C)c1ccccc1NC(=O)CN1CCN(C/C=C/c2ccccc2)CC1` (stereo unspecified), the Potency was inconclusive [inhibitor, full curve].
For `O=c1oc2ccc(Br)cc2cc1S(=O)(=O)c1ccc(F)cc1`, the Potency was “inactive”.
`COc1ccccc1CC(=O)N1CCCc2ccccc21` was tested, and the Potency was inconclusive [inhibitor, single point].
`CCOC(=O)c1[nH]c(C)c(C(=O)NCc2ccccn2)c1C` was tested, and the Potency was inconclusive [inhibitor, partial curve].
`CCOc1ccc(CC(=O)Nc2ccc3nc(N4CCCCC4)cc(C)c3c2)cc1OCC` was tested, and the Potency was “inactive”.
In the case of `COc1ccc(N)cc1C#N`, the Potency is reported as inconclusive [inhibitor, full curve].
For `O=C1CCSc2ccc(Cl)cc2N1Cc1ccccc1`, the Potency was inconclusive [inhibitor, partial curve, poor fit].
In the case of `Cc1ccc(N/N=C/c2c(O)cc(C)oc2=O)cc1`, the Potency is reported as inconclusive [inhibitor, single point].
In the case of `CN(C)CCCN(C(=O)c1cc2ccccc2oc1=O)c1nc2c(F)cccc2s1`, the Potency is reported as inconclusive [inhibitor, full curve, poor fit].
With `CSCCC(=O)NC1CC(C)(C)Cc2c1cnn2-c1ccccc1C` (stereo unspecified) the Potency was inconclusive [inhibitor, partial curve, poor fit].
`COc1ccc(-c2nc3scc(CCNS(=O)(=O)c4ccc(F)cc4F)n3n2)cc1OC` was tested, and the Potency was “inactive”.
In the case of `COc1ccc(C(=O)/C=C/c2ccc(N(C)C)cc2)c(OC)c1`, the Potency is reported as “inactive”.
`C=CCNS(=O)(=O)c1ccc(OCC(=O)OCC)cc1` was tested, and the Potency was inconclusive [inhibitor, full curve].
`COc1cc(C(=O)NCCCCc2ccccc2)cc(OC)c1OC` was tested, and the Potency was inconclusive [inhibitor, partial curve, poor fit].
With `COc1ccc(N2CCN(C(=O)COC(=O)/C=C/c3ccc(OC(F)F)cc3)CC2)cc1` the Potency was inconclusive [inhibitor, full curve, poor fit].
For `COC(=O)CN1C(=O)C2(C(C#N)=C(N)Oc3c2c(C)nn3-c2ccccc2)c2ccccc21` (stereo unspecified), the Potency was inconclusive [inhibitor, partial curve, poor fit].
With `O=C(COC(=O)C1(c2cccc(F)c2)CCCC1)NCc1ccc2c(c1)OCO2` the Potency was “inactive”.
For `COc1ccc(OC)c(S(=O)(=O)N2CCC(C(=O)Nc3cccc(C(F)(F)F)c3)CC2)c1`, the Potency was inconclusive [inhibitor, full curve, poor fit].
In the case of `COc1cc(C2NC(=O)NC(C)=C2C(=O)OC2CCCC(C)C2)cc(Br)c1O` (stereo unspecified), the Potency is reported as inconclusive [inhibitor, full curve, poor fit].
With `CCCCc1cc(=O)oc2cc(OC(C)C(=O)NCC3CCC(C(=O)O)CC3)c(Cl)cc12` (stereo unspecified) the Potency was inconclusive [inhibitor, full curve, poor fit].
For `O=C(CNS(=O)(=O)c1ccc(C(=O)N2CCCCC2)cc1)N1CCCCC1`, the Potency was “inactive”.
`Cc1ccc(-n2nnnc2-c2cnoc2-c2cccc(F)c2)cc1` was tested, and the Potency was inconclusive [inhibitor, single point].
In the case of `O=C(CSc1nncn1-c1ccccc1)NC1CCCc2ccccc21` (stereo unspecified), the Potency is reported as inconclusive [inhibitor, single point].
With `O=C(NCCc1ccccc1)C1CCN(S(=O)(=O)c2ccc(-c3nn[nH]n3)cc2)CC1` the Potency was inconclusive [inhibitor, full curve].
`O=C(NC1CCN(C(=O)NCc2ccccc2)CC1)c1ccc(F)cc1` was tested, and the Potency was inconclusive [inhibitor, full curve, poor fit].
`CN1C(=O)c2cccc(NC(=O)C3CCCCC3)c2C1=O` was tested, and the Potency was inconclusive [inhibitor, full curve].
With `O=C(CC1Sc2ncnn2C1=O)Nc1ccc(Br)cc1` (stereo unspecified) the Potency was “inactive”.
For `Cc1cc(C)nc(N2CCCC(C(=O)NC3CCCC3)C2)n1` (stereo unspecified), the Potency was inconclusive [inhibitor, full curve, poor fit].
